Usually % Inhibition stands for the relative decrease from the control value, in per cent.

Out of some 150,000 compounds screened, about 540 (0.36%) showed an effect of 50% or more. The list shows a part of the results.

The test system of this assay is Plasmodium falciparum. The assay is described as follows: Primary screen in NF54 nanoGlo assay, in single point, at 2uM, 72h; a lower Z score goes with more inhibition. The format is functional, Erythrocyte. The settings on record: timepoint 72 hour.
Take `Cc1ccc(-c2nc3ccccc3n2CCNS(=O)(=O)c2ccc(C3CCCCC3)cc2)cc1`: the “% Inhibition” value was -2% and the Z score came out at 0.34.
In the same order, the values of `C=C(C)[C@H]1OCC[C@H]1C(=O)NC1CCCC1OC` (stereo partly drawn) are -5% and 0.51.
In the same order, the values of `Cn1nc(C2CC2)c2c(C(=O)O)cc(-c3ccc(OC(F)F)cc3)nc21` are -32% and 3.72.
In the same order, the values of `Cc1cc(F)cc(C(=O)OC[C@H]2CCC(=O)N2)c1` are 0% and -0.08.
Consider `CN(C(=O)c1cccnc1)[C@@H](Cc1ccc(F)cc1F)C1CCN(C(=O)CCC2CCCCC2)CC1`, for which the “% Inhibition” value was 14% and the Z score is on record as -1.77.
For `CN(C[C@H](O)C(F)(F)F)C(=O)c1ccc(C#N)cn1`, the “% Inhibition” value is reported as -15% and the Z score was found to be 1.32.
Take `O=C(O)c1cccc(S(=O)(=O)Nc2ccccc2N2CCc3sccc3C2)c1`: the “% Inhibition” value stood at 0% and the Z score worked out at 0.05.
The like results for `C[C@@H]1CN(C(=O)c2ccccc2OC(F)F)C[C@H](C)N1C` were, in that order, -8% and 0.99.
In the same order, the values of `CCCC(=O)N1CCC(c2nnc(C(=O)Nc3ccc(F)cc3F)s2)CC1` are -22% and 2.05.
In the same order, the values of `CC(=O)N1C[C@@H](O)C[C@@H]1c1nc(-c2ccc3oc(N(C)C)nc3c2)no1` are -5% and 1.05.
Consider `CCCc1nn(-c2cccc(Cl)c2)c(O)c1C(=O)CN(CCC)C(=O)c1ccc(CC)cc1`, for which the “% Inhibition” value was 5% and the Z score is -0.57.
The like results for `O=C(CS(=O)(=O)c1ccc2c(c1)S(=O)(=O)N=CN2)Nc1ccccc1Cl` were, in that order, -3% and 0.46.
The like results for `COc1ccc(C(=O)N2CCOc3ccc(CN4CCCCCC4)cc3C2)cc1OC` were, in that order, -21% and 2.2.
The like results for `CC(C)C[C@@H](c1nc(-c2ccccc2F)no1)n1ccnc1` were, in that order, -1% and 0.11.
Consider `CC(C)C(OCC1CCCO1)C(=O)N1CC(C)C(N(C)C)C1` (stereo not drawn), for which the “% Inhibition” value is on record as -3% and the Z score came to 0.38.
The like results for `CCCN(C(=O)c1oc(C)nc1C)C1CC(OCC)C1(C)C` (stereo not drawn) were, in that order, -1% and 0.17.
Take `COC[C@H]1CCN(C(=O)Nc2ccc(N3CCCC3)c(C)c2)C1`: the “% Inhibition” value is listed as -11% and the Z score came out at 1.73.
The like results for `CCc1nc(CC)n(Cc2ccccc2Cn2nc(CC)nc2CC)n1` were, in that order, -14% and 1.29.
As to `Cc1cccnc1NC(=O)C1CCCN(C(=O)CC2CCCO2)C1` (stereo not drawn), the “% Inhibition” value is reported as -9% and the Z score is recorded as 1.28.
The like results for `CC(=O)N1CC[C@H](Nc2ccnc(Cc3ccccc3)n2)C1` were, in that order, -10% and 1.62.
The like results for `CN(C)S(=O)(=O)[C@@H]1CN(c2ncccc2C(=O)O)C[C@H]1C(F)(F)F` were, in that order, 1% and -0.07.
In the same order, the values of `CC(C)(O)Cn1nc(-c2ccco2)nc1Cc1ccncc1` are 4% and -0.54.
On to `O=C(CN1CCN(C(=O)Nc2ccc(F)cc2)CC1=O)NCc1ccccc1F`, for which the “% Inhibition” value was -2% and the Z score was found to be 0.3.
In the same order, the values of `Cc1nc(C)c(CC(=O)Nc2nnc(C3CC3)s2)s1` are -6% and 0.72.
The like results for `CC1CN(c2nnnn2[C@@H]2CCO[C@@H]2C)CC2(CCCC2)O1` (stereo partly drawn) were, in that order, -2% and 0.24.
The like results for `CNc1snc(C)c1C(=O)Nc1cc(S(=O)(=O)N2CCCC2)ccc1O` were, in that order, -7% and 1.09.
`CCN(Cc1ccco1)C(=O)[C@@H]1Cc2[nH]cnc2C2(CCCCC2)N1`: the “% Inhibition” value came to 0% and the Z score is given as -0.05.
Take `CNS(=O)(=O)c1cc(N)ccc1OC`: the “% Inhibition” value turned out to be 8% and the Z score is recorded as -1.1.
The like results for `O=C(Nc1nc2n(n1)CCCC2)NC1CCC1` were, in that order, -3% and 0.6.
Regarding `O=C1NC(=O)[C@@H]2CN(Cc3cc(Cl)cc4c3OCC4)C[C@H]12`, the “% Inhibition” value was -4% and the Z score was found to be 0.57.
In the same order, the values of `O=C(C1c2ccccc2Oc2ccccc21)N1CCOCC1` are 5% and -0.91.
In the same order, the values of `Cc1ccc(-n2cc(C(=O)O)c(-c3ccccc3)n2)c(N)n1` are -5% and 0.96.
The like results for `CNC(=O)COC(=O)c1c(F)cccc1Cl` were, in that order, -8% and 1.59.
Consider `O=C1OC2(CCN(S(=O)(=O)Cc3cc(F)ccc3F)CC2)c2ccccc21`, for which the “% Inhibition” value is given as -19% and the Z score is listed as 2.49.
Turning to `O=C(NCCc1cccc(F)c1F)N[C@H]1CC12CCOCC2`, the “% Inhibition” value is reported as -8% and the Z score is listed as 1.68.
In the same order, the values of `CCCN1CCC[C@H](NC(=O)c2cc(OC)c(OC(C)C)cc2Cl)C1` are -11% and 2.17.
In the same order, the values of `CN1CCCC[C@H](CNC(=O)c2cn(-c3cccc(Cl)c3F)nn2)C1` are -1% and 0.19.
Turning to `CCCCNC(=O)N1C[C@H](OC)C[C@@H]1COc1cccnc1`, the “% Inhibition” value was -5% and the Z score was 1.16.
In the case of `CC1CCC(C(N)=O)CN1C(=O)Nc1ccccc1N1CCN(C)CC1` (stereo not drawn), the “% Inhibition” value was -15% and the Z score turned out to be 1.34.
The like results for `CCc1ccc(S(=O)(=O)N(CCC(=O)N2CCNCC2)C2CCCC2)cc1` were, in that order, -5% and 0.83.
Turning to `CCn1nccc1S(=O)(=O)NCc1ccncc1OC[C@H]1CCOC1`, the “% Inhibition” value is given as -2% and the Z score is 0.3.
Turning to `O=C(COCC(F)(F)F)NCc1ccccc1C(F)(F)F`, the “% Inhibition” value is 0% and the Z score is -0.05.
As to `COc1ncc(CN2CCc3[nH]cnc3[C@@H]2C(C)C)cn1`, the “% Inhibition” value is reported as -10% and the Z score was determined as 1.9.
In the case of `Cn1cccc(C(=O)NCC2CCN(c3cnccn3)CC2)c1=O`, the “% Inhibition” value is reported as -1% and the Z score was 0.11.
The like results for `O=C(Cc1ncc(Br)cc1Cl)NC1CCCCC1` were, in that order, 4% and -0.55.
In the same order, the values of `CCC(=O)N(CC(=O)Nc1nc(-c2ccccc2)cn1-c1ccc(C(C)C)cc1)CC(C)C` are -18% and 1.72.
The like results for `C[C@H]1c2cc(F)ccc2CCN1C(=O)NCCCC(=O)N(C)C` were, in that order, 6% and -0.71.
On to `CC(C)[C@H](NC(=O)c1cccs1)c1nc2ccccc2n1C(C)C`, for which the “% Inhibition” value is given as -1% and the Z score is 0.1.
The like results for `CC(C)c1ncsc1C(=O)N1CCC(n2cc(Cl)cn2)CC1` were, in that order, -5% and 0.73.
For the compound `Cn1ccnc1CNC[C@@H](O)c1ccc(C(F)(F)F)cc1`, the “% Inhibition” value was -6% and the Z score turned out to be 1.25.
The like results for `CC(C)c1cc(C(=O)N(CCNS(C)(=O)=O)C2CC2)nn1-c1ccccc1` were, in that order, -6% and 0.81.
The like results for `CN(CC1CCCC1)C(=O)c1cc2c([nH]c1=O)CCCC2=O` were, in that order, 32% and -3.21.
Consider `COc1cccc(CNS(=O)(=O)c2c[nH]c(-c3nnc(C)o3)c2)c1`, for which the “% Inhibition” value was -10% and the Z score is 1.92.
Consider `CC(C)(C)c1noc(CNC(=O)COC[C@H]2CCCO2)n1`, for which the “% Inhibition” value was -3% and the Z score is on record as 0.63.
In the same order, the values of `CCN(CC(=O)Nc1ccc(Cl)cc1F)Cc1noc(C2CCC2)n1` are 4% and -0.76.
The like results for `O=C(Cn1nc(-c2ccccc2)ccc1=O)N1CC[C@@]2(O)CCCC[C@H]2C1` were, in that order, -8% and 1.49.
Regarding `CCOc1cccc(CCC(=O)N2CCCNC(=O)[C@@H]2CC)c1`, the “% Inhibition” value was -5% and the Z score was determined as 0.81.
In the same order, the values of `O=C(NC[C@H]1CCCO1)c1ccc(-c2cnc3ncnn3c2)cc1` are -21% and 1.83.
For `Cc1ncc(C(=O)N2CC(C)(C)Oc3cc(Br)ccc32)c(C)n1`, the “% Inhibition” value is on record as -11% and the Z score stood at 1.02.
In the same order, the values of `O=C(c1coc(CN(Cc2ccc3c(c2)OCO3)Cc2ccccc2F)n1)N1CCOCC1` are -1% and 0.2.
Take `CC(=O)N[C@H]1CN(C(=O)c2ccc3nccnc3c2)C[C@@H]1c1ccc(C)cc1`: the “% Inhibition” value is reported as -4% and the Z score amounted to 0.72.
In the same order, the values of `C[C@@H](CNC(=O)c1cc(C#N)c[nH]1)N(C)C(=O)c1cc(C#N)c[nH]1` are 5% and -0.62.
In the same order, the values of `CCn1nccc1C(=O)N1CC(N(C)Cc2cccnc2)C1` are -9% and 1.66.
The like results for `COC(=O)N1CC(C)(NC(=O)Nc2nn(C)cc2C)C1` were, in that order, -9% and 1.61.
Consider `CCNC(=O)[C@@H](NC(=O)c1nnn(Cc2cc(C)no2)c1C)C(C)C`, for which the “% Inhibition” value is 4% and the Z score is -0.48.
The like results for `CC1=C(C)CC(C(=O)N2CCc3ccccc32)C(C(=O)O)C1` (stereo not drawn) were, in that order, -9% and 1.81.
In the same order, the values of `CCCc1nc(CN2CCc3cc(F)ccc3C2)no1` are -5% and 0.81.
The like results for `CCn1ccc(C(=O)NCCn2c(C)cnc2COC)n1` were, in that order, 4% and -0.44.
As to `Cc1ccccc1CC1(N[C@@H](C)Cn2ccnc2C)CC1`, the “% Inhibition” value was -10% and the Z score amounted to 1.79.
Turning to `COCc1nc2cc(NC(=O)Cc3ccccc3)cc(C(=O)N3CCNC(=O)C3)c2n1C`, the “% Inhibition” value is -18% and the Z score was determined as 1.6.
In the same order, the values of `Cc1cc(NCCNS(=O)(=O)CCCF)n(C)n1` are -4% and 0.4.
`CS(=O)(=O)[C@@H]1CCCC[C@H]1NC(=O)c1ccc(Cl)c(F)c1`: the “% Inhibition” value was -3% and the Z score is given as 0.39.
For the compound `CN(C)CCN1C(=O)N[C@@](Cc2cccc(F)c2)(C2CCN(C(=O)c3cccs3)CC2)C1=O`, the “% Inhibition” value is -15% and the Z score turned out to be 2.14.
In the same order, the values of `O=C(CNC1(c2cccc(Cl)c2)CC1)NCc1ccco1` are -8% and 1.02.
The like results for `CCN1CCN(C2CN(S(=O)(=O)c3ccc(F)cc3C)C2)CC1` were, in that order, -3% and 0.52.
For the compound `CC(C)n1cc(NC(=O)N2CCC[C@H](c3cn[nH]c3)C2)cn1`, the “% Inhibition” value was 2% and the Z score is listed as -0.23.
The like results for `Cc1ncsc1CNCCCNc1ccccc1` were, in that order, -14% and 2.11.
The like results for `CCn1ncc(C(=O)N2C[C@@H]3CN(C(=O)C(C)C)C[C@]3(C(=O)N3CCCC3)C2)c1C` were, in that order, -2% and 0.29.
The like results for `O=C(O)C[C@@H]1CCN(C2CCC2)C[C@@H]1Cc1nc2ccccc2[nH]1` were, in that order, 3% and -0.44.
In the case of `O=C(Cc1ccc2c(c1)OCO2)N(CCO)Cc1ccc(Cl)cc1`, the “% Inhibition” value was -10% and the Z score worked out at 0.97.
Consider `CCCc1nnc(NC(=O)CCN2C(=O)CCC2=O)s1`, for which the “% Inhibition” value is given as -2% and the Z score is given as 0.33.
Consider `c1ccc(-c2nc(CN3C[C@@H]4NCCO[C@H]4C3)cs2)cc1`, for which the “% Inhibition” value is -13% and the Z score came to 2.56.
For the compound `Nc1ncncc1C(=O)OCc1noc(C2CC2)n1`, the “% Inhibition” value is reported as -9% and the Z score is given as 1.44.
In the same order, the values of `Cc1c(C(=O)NC[C@H]2COc3ccccc3O2)cnn1-c1nccc(-c2ccco2)n1` are -1% and 0.09.

The values above are taken from ChEMBL document CHEMBL4888484, “Replenishing the malaria drug discovery pipeline: Screening and hit evaluation of the MMV Hit Generation Library 1 (HGL1) against asexual blood stage Plasmodium falciparum ,using a nano luciferase reporter read-out” (2022).
